Measured values taken from the supplement of paper PMC8728848.
This is one part of the list.

Assays:
Test in all cases: glycan array binding signal (z-score within array); higher = stronger binding
Settings in all cases: glycan notation: IUPAC condensed, linker removed
[1] = biological target: Gal(b1-4)GlcNAc(b1-3)Gal(b1-4)GlcNAc(b1-2)Man(a1-3)[Gal(b1-4)GlcNAc(b1-3)Gal(b1-4)GlcNAc(b1-2)Man(a1-6)]Man(b1-4)GlcNAc(b1-4)[Fuc(a1-6)]GlcNAc
Outline: (§1)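 Arrays were curated from the Consortium for Functional Glycomics database, 3228 in total, and kept only where the protein sequence was available. Binding is expressed as a within-array Z-score. This score was averaged across arrays of the same protein sequence at different concentrations or buffers and across linkers, and negative values can be read as non-binding.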

[2] = biological target: Gal(b1-4)GlcNAc(b1-3)Gal(b1-4)GlcNAc(b1-2)[Gal(b1-4)GlcNAc(b1-3)Gal(b1-4)GlcNAc(b1-6)]Man(a1-6)[Gal(b1-4)GlcNAc(b1-3)Gal(b1-4)GlcNAc(b1-2)Man(a1-3)]Man(b1-4)GlcNAc(b1-4)GlcNAc
Outline: as §1

[3] = biological target: Gal(b1-4)GlcNAc(b1-3)Gal(b1-4)GlcNAc(b1-2)[Gal(b1-4)GlcNAc(b1-3)Gal(b1-4)GlcNAc(b1-6)]Man(a1-6)[Gal(b1-4)GlcNAc(b1-3)Gal(b1-4)GlcNAc(b1-2)Man(a1-3)]Man(b1-4)GlcNAc(b1-4)[Fuc(a1-6)]GlcNAc
Outline: as §1

[4] = biological target: Gal(b1-4)GlcNAc(b1-3)Gal(b1-4)GlcNAc(b1-3)Gal(b1-4)GlcNAc
Outline: as §1

[5] = biological target: Gal(b1-4)GlcNAc(b1-3)Gal(b1-4)GlcNAc(b1-3)Gal(b1-4)GlcNAc(b1-2)Man(a1-3)[Gal(b1-4)GlcNAc(b1-3)Gal(b1-4)GlcNAc(b1-3)Gal(b1-4)GlcNAc(b1-2)Man(a1-6)]Man(b1-4)GlcNAc(b1-4)GlcNAc
Outline: as §1

[6] = biological target: Gal(b1-4)GlcNAc(b1-3)Gal(b1-4)GlcNAc(b1-3)Gal(b1-4)GlcNAc(b1-2)Man(a1-3)[Gal(b1-4)GlcNAc(b1-3)Gal(b1-4)GlcNAc(b1-3)Gal(b1-4)GlcNAc(b1-2)Man(a1-6)]Man(b1-4)GlcNAc(b1-4)[Fuc(a1-6)]GlcNAc
Outline: as §1

[7] = biological target: Gal(b1-4)GlcNAc(b1-3)Gal(b1-4)GlcNAc(b1-3)Gal(b1-4)GlcNAc(b1-2)[Gal(b1-4)GlcNAc(b1-3)Gal(b1-4)GlcNAc(b1-3)Gal(b1-4)GlcNAc(b1-6)]Man(a1-6)[Gal(b1-4)GlcNAc(b1-3)Gal(b1-4)GlcNAc(b1-3)Gal(b1-4)GlcNAc(b1-2)Man(a1-3)]Man(b1-4)GlcNAc(b1-4)[Fuc(a1-6)]GlcNAc
Outline: as §1

[8] = biological target: Gal(b1-4)GlcNAc(b1-3)Gal(b1-4)GlcNAc(b1-3)Gal(b1-4)GlcNAc(b1-3)Gal(b1-4)GlcNAc(b1-2)Man(a1-3)[Gal(b1-4)GlcNAc(b1-3)Gal(b1-4)GlcNAc(b1-3)Gal(b1-4)GlcNAc(b1-3)Gal(b1-4)GlcNAc(b1-2)Man(a1-6)]Man(b1-4)GlcNAc(b1-4)GlcNAc
Outline: as §1

[9] = biological target: Gal(b1-4)GlcNAc(b1-3)Gal(b1-4)GlcNAc(b1-3)Gal(b1-4)GlcNAc(b1-3)Gal(b1-4)GlcNAc(b1-2)Man(a1-3)[Gal(b1-4)GlcNAc(b1-3)Gal(b1-4)GlcNAc(b1-3)Gal(b1-4)GlcNAc(b1-3)Gal(b1-4)GlcNAc(b1-2)Man(a1-6)]Man(b1-4)GlcNAc(b1-4)[Fuc(a1-6)]GlcNAc
Outline: as §1

[10] = biological target: Gal(b1-4)GlcNAc(b1-3)Gal(b1-4)GlcNAc(b1-3)Gal(b1-4)GlcNAc(b1-3)Gal(b1-4)GlcNAc(b1-2)[Gal(b1-4)GlcNAc(b1-3)Gal(b1-4)GlcNAc(b1-3)Gal(b1-4)GlcNAc(b1-3)Gal(b1-4)GlcNAc(b1-6)]Man(a1-6)[Gal(b1-4)GlcNAc(b1-3)Gal(b1-4)GlcNAc(b1-3)Gal(b1-4)GlcNAc(b1-3)Gal(b1-4)GlcNAc(b1-2)Man(a1-3)]Man(b1-4)GlcNAc(b1-4)[Fuc(a1-6)]GlcNAc
Outline: as §1

[11] = biological target: Gal(b1-4)GlcNAc(b1-3)Gal(b1-4)GlcNAc(b1-3)Gal(b1-4)GlcNAc(b1-3)Gal(b1-4)GlcNAc(b1-3)Gal(b1-4)GlcNAc(b1-2)Man(a1-3)[Gal(b1-4)GlcNAc(b1-3)Gal(b1-4)GlcNAc(b1-3)Gal(b1-4)GlcNAc(b1-3)Gal(b1-4)GlcNAc(b1-3)Gal(b1-4)GlcNAc(b1-2)Man(a1-6)]Man(b1-4)GlcNAc(b1-4)GlcNAc
Outline: as §1

[12] = biological target: Gal(b1-4)GlcNAc(b1-3)Gal(b1-4)GlcNAc(b1-3)Gal(b1-4)GlcNAc(b1-3)Gal(b1-4)GlcNAc(b1-3)Gal(b1-4)GlcNAc(b1-2)Man(a1-3)[Gal(b1-4)GlcNAc(b1-3)Gal(b1-4)GlcNAc(b1-3)Gal(b1-4)GlcNAc(b1-3)Gal(b1-4)GlcNAc(b1-3)Gal(b1-4)GlcNAc(b1-2)Man(a1-6)]Man(b1-4)GlcNAc(b1-4)[Fuc(a1-6)]GlcNAc
Outline: as §1

[13] = biological target: Gal(b1-4)GlcNAc(b1-3)Gal(b1-4)GlcNAc(b1-3)Gal(b1-4)GlcNAc(b1-3)Gal(b1-4)GlcNAc(b1-3)Gal(b1-4)GlcNAc(b1-2)[Gal(b1-4)GlcNAc(b1-3)Gal(b1-4)GlcNAc(b1-3)Gal(b1-4)GlcNAc(b1-3)Gal(b1-4)GlcNAc(b1-3)Gal(b1-4)GlcNAc(b1-6)]Man(a1-6)[Gal(b1-4)GlcNAc(b1-3)Gal(b1-4)GlcNAc(b1-3)Gal(b1-4)GlcNAc(b1-3)Gal(b1-4)GlcNAc(b1-3)Gal(b1-4)GlcNAc(b1-2)Man(a1-3)]Man(b1-4)GlcNAc(b1-4)[Fuc(a1-6)]GlcNAc
Outline: as §1

[14] = biological target: Gal(b1-4)GlcNAc(b1-3)Gal(b1-4)GlcNAc(b1-3)Gal(b1-4)GlcNAc(b1-3)Gal(b1-4)GlcNAc(b1-3)Gal(b1-4)GlcNAc(b1-3)Gal(b1-4)GlcNAc(b1-2)Man(a1-3)[Gal(b1-4)GlcNAc(b1-3)Gal(b1-4)GlcNAc(b1-3)Gal(b1-4)GlcNAc(b1-3)Gal(b1-4)GlcNAc(b1-3)Gal(b1-4)GlcNAc(b1-3)Gal(b1-4)GlcNAc(b1-2)Man(a1-6)]Man(b1-4)GlcNAc(b1-4)GlcNAc
Outline: as §1

[15] = biological target: Gal(b1-4)GlcNAc(b1-3)Gal(b1-4)GlcNAc(b1-3)GalNAc
Outline: as §1

[16] = biological target: Gal(b1-4)GlcNAc(b1-3)Gal(b1-4)GlcNAc(b1-3)[Gal(b1-4)GlcNAc(b1-3)Gal(b1-4)GlcNAc(b1-6)]GalNAc
Outline: as §1

[17] = biological target: Gal(b1-4)GlcNAc(b1-3)Gal(b1-4)GlcNAc(b1-6)[Gal(b1-3)]GalNAc
Outline: as §1

[18] = biological target: Gal(b1-4)GlcNAc(b1-3)Gal(b1-4)[Fuc(a1-3)GlcNAc(b1-6)]Gal(b1-4)Glc
Outline: as §1

[19] = biological target: Gal(b1-4)GlcNAc(b1-3)Gal(b1-4)[Fuc(a1-3)]GlcNAc(b1-3)Gal(b1-4)[Fuc(a1-3)]GlcNAc
Outline: as §1

[20] = biological target: Gal(b1-4)GlcNAc(b1-3)GalNAc
Outline: as §1

[21] = biological target: Gal(b1-4)GlcNAc(b1-3)[Fuc(a1-3)GlcNAc(b1-6)]Gal(b1-4)Glc
Outline: as §1

[22] = biological target: Gal(b1-4)GlcNAc(b1-3)[Gal(b1-4)GlcNAc(b1-6)]Gal(b1-4)GlcNAc
Outline: as §1

[23] = biological target: Gal(b1-4)GlcNAc(b1-3)[Gal(b1-4)GlcNAc(b1-6)]GalNAc
Outline: as §1

[24] = biological target: Gal(b1-4)GlcNAc(b1-3)[GlcNAc(b1-6)]Gal(b1-4)GlcNAc
Outline: as §1

[25] = biological target: Gal(b1-4)GlcNAc(b1-6)Gal(b1-4)GlcNAc
Outline: as §1

[26] = biological target: Gal(b1-4)GlcNAc(b1-6)GalNAc
Outline: as §1

[27] = biological target: Gal(b1-4)GlcNAc(b1-6)[Gal(b1-3)]GalNAc
Outline: as §1

[28] = biological target: Gal(b1-4)GlcNAc(b1-6)[Gal(b1-3)]GlcNAc
Outline: as §1

[29] = biological target: Gal(b1-4)GlcNAc(b1-6)[Gal(b1-4)GlcNAc(b1-3)]GalNAc
Outline: as §1

Gal(b1-4)GlcNAc6P = biological target: Gal(b1-4)GlcNAc6P
Outline: as §1

B1: Epa1-NP (Candida glabrata), Q6VBJ0 (protein)
chain: MILNPALFLNKCVCIYTTLILLLLTNGGYATSSNDISLASKDPTTFPLGCSPDITTPKKGLSMELYSYDFRKKGSYPCWDAAYLDPNYPRTGYKSHRLLAKVDGVTGNINFYYHATKGCTPQLGHLPASYNYPKPLTMTNFTMLLYGYFRPKVTGFHTFTISADDLLFVNFGAGNAFDCCRRDSSADHFGNYQAYAIWGSKTAKDELTVHLDAGVYYPIRLFYNNREYDGALSFTFKTESNENTVSDFSEYFFSLDDTEEGCPGLISYDSSCASVKTSKIIGIDYHTETPNENLVPITKTIYHLGIPCTGTTTTPLCGSGFYDPLANKCVTINTSSTSSVTKTTSHTTSKEVSFHSSISSQKTLIPKSIPSPYGPIKSQSIPTEMETSSEISSSEYAFSDVISTPSHSPYTKKHSSLNSSSYTSTVIHSLTSYSISQGIFSTSLSEQNITSKSSTDKFSTATSMSNNITQSSIIISQFSTNNENYTTTSMHTSSDKISTETLNNSISTTTSILFSNSSTILKNNTTIISSDKDTHYHPVNPTIVCSTNKTEIICASITQPSISNSNNHWSSSVLKFNSTTVRSTLPSSAGSNETSINVPFSSSTESNTSTSSTSTSNSKMVRSTLPSSAGSNETSISVPFSSSTESNTSTSSTSTSNSKMVRSTLPSSAGSNETSINVPFSSSTESNTSTSSTSTSNSKTVRSTPFSSAGIIMTSLSQRNNKSASSYASSNSKCYNTADSCRKVHSTPSYLLTSSYTSEGVDYDCSLVSTKLKINDTNCVNNKHTTKSCLKTSVTTTIPTLEIKTARKSSSNTIGLHSYPTSSPNKSISSAPIIGYISSFKTIKTASPSYQTSDLTTITTITSLNNPGSTAVENTHESNDKSRKTSSNDISSKHSVIKETKDAVESSNKSHQTNTLKCSSIIIASSSHNSYESLGGTTLTLTLSKVYSPQNNDTLPFLEISEVNPSRTVLPESSKMMQYLTSTEERNKTARNTIATNIVSISTFHFEGEGNAIRMGYTQLLLMLIGIIVMNIGT
[1]
  glycan array binding signal (z-score): 1.63
[2]
  glycan array binding signal (z-score): 1.54
[3]
  glycan array binding signal (z-score): 2.48
[4]
  glycan array binding signal (z-score): 0.443
[5]
  glycan array binding signal (z-score): 1.13
[6]
  glycan array binding signal (z-score): 1.64
[7]
  glycan array binding signal (z-score): 2.81
[8]
  glycan array binding signal (z-score): 0.868
[9]
  glycan array binding signal (z-score): 1.25
[10]
  glycan array binding signal (z-score): 1.61
[11]
  glycan array binding signal (z-score): 1.22
[12]
  glycan array binding signal (z-score): 0.887
[13]
  glycan array binding signal (z-score): 1.3
[14]
  glycan array binding signal (z-score): 1.3
[15]
  glycan array binding signal (z-score): -0.144
[16]
  glycan array binding signal (z-score): 1.2
[17]
  glycan array binding signal (z-score): 1.37
[18]
  glycan array binding signal (z-score): -0.216
[19]
  glycan array binding signal (z-score): 0.29
[20]
  glycan array binding signal (z-score): 0.08
[21]
  glycan array binding signal (z-score): -0.106
[22]
  glycan array binding signal (z-score): 1.54
[23]
  glycan array binding signal (z-score): 1.37
[24]
  glycan array binding signal (z-score): 0.487
[25]
  glycan array binding signal (z-score): 2.34
[26]
  glycan array binding signal (z-score): 0.743
[27]
  glycan array binding signal (z-score): 2.73
[28]
  glycan array binding signal (z-score): 2.48
[29]
  glycan array binding signal (z-score): 1.66
Gal(b1-4)GlcNAc6P
  glycan array binding signal (z-score): -0.287
